# Counter-ions that a name gives are not always drawn. ± gives the standard deviation of the averaged measurements. Some of the results follow.
# Legend:
# [1] = system: murine small intestinal organoids (ENR+CD Paneth differentiation); test: cellular ATP (CellTiter-Glo 3D) relative to plate median (log10 fold change); higher = more viable cells; conditions: 6 d
# [2] = system: murine small intestinal organoids (ENR+CD Paneth differentiation); test: carbachol-stimulated secreted lysozyme activity relative to plate median (log10 fold change); higher = more Paneth cell lysozyme secretion; conditions: 6 d, carbachol 10 µM
# [3] = system: murine small intestinal organoids (ENR+CD Paneth differentiation); test: basal (non-stimulated) secreted lysozyme activity relative to plate median (log10 fold change); higher = more Paneth cell lysozyme secretion; conditions: 6 d
# 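Wherever basal (non-stimulated) secreted lysozyme activity relative to plate median is given: ISC-enriched organoid precursors grown as 2.5D pseudo-monolayer on Matrigel, compound given on day 0 and day 3, plate values LOESS-normalized before median fold change, three murine donors.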
# 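Wherever cellular ATP (CellTiter-Glo 3D) relative to plate median is given: 2.5D pseudo-monolayer culture of ISC-enriched organoids partly embedded atop Matrigel, compound added on day 0 and again on day 3, per-plate LOESS correction before median fold change.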
Compound,cellular ATP (log10) ([1]; 0.08 µM),cellular ATP (log10) ([1]; 0.4 µM),cellular ATP (log10) ([1]; 2 µM),cellular ATP (log10) ([1]; 10 µM),carbachol-stimulated secreted lysozyme activity (log10) ([2]; 0.08 µM),carbachol-stimulated secreted lysozyme activity (log10) ([2]; 0.4 µM),carbachol-stimulated secreted lysozyme activity (log10) ([2]; 2 µM),carbachol-stimulated secreted lysozyme activity (log10) ([2]; 10 µM),basal (log10) ([3]; 0.08 µM),basal (log10) ([3]; 0.4 µM),basal (log10) ([3]; 2 µM),basal (log10) ([3]; 10 µM)
NC1(c2ccc(-c3nc4ccn5c(=O)[nH]nc5c4cc3-c3ccccc3)cc2)CCC1,0.0707 ± 0.097,-0.0232 ± 0.13,-0.178 ± 0.23,-0.54 ± 0.13,0.0392 ± 0.11,0.149 ± 0.34,-0.265 ± 0.015,-0.442 ± 0.096,0.0236 ± 0.029,-0.0632 ± 0.072,-0.182 ± 0.051,-0.236 ± 0.086
CCCCN1CCCCC1C(=O)Nc1c(C)cccc1C (stereo unspecified) [Bupivacaine HCl],-0.0033 ± 0.19,-0.217 ± 0.19,-0.3 ± 0.21,-0.364 ± 0.15,0.169 ± 0.16,-0.21 ± 0.035,-0.286 ± 0.035,-0.358 ± 0.046,0.00179 ± 0.027,-0.1 ± 0.052,-0.137 ± 0.083,-0.195 ± 0.13
CC(NC(=O)C(O)c1cc(F)cc(F)c1)C(=O)NC1C(=O)N(C)c2ccccc2-c2ccccc21 (stereo unspecified),0.0349 ± 0.24,-0.172 ± 0.39,-0.172 ± 0.28,-0.259 ± 0.31,0.102 ± 0.16,0.106 ± 0.17,-0.061 ± 0.056,-0.167 ± 0.12,0.0398 ± 0.12,-0.0499 ± 0.052,-0.0687 ± 0.052,-0.109 ± 0.054
COc1c(O)cc2c(c1O)[C@@H]1O[C@H](CO)[C@@H](O)[C@H](O)[C@H]1OC2=O [Bergenin],0.288 ± 0.12,0.245 ± 0.057,0.205 ± 0.37,0.344 ± 0.25,0.154 ± 0.084,0.0318 ± 0.029,0.123 ± 0.15,0.0725 ± 0.098,0.164 ± 0.092,0.0978 ± 0.11,0.0803 ± 0.056,0.103 ± 0.093
Cc1ccccc1C(=O)Nc1ccc(C(=O)N2CCCC(N(C)C)c3ccccc32)cc1 (stereo unspecified) [Mozavaptan],0.32 ± 0.44,0.235 ± 0.39,0.108 ± 0.23,-0.336 ± 0.25,-0.0471 ± 0.076,0.203 ± 0.28,0.104 ± 0.052,-0.322 ± 0.07,0.0671 ± 0.17,-0.0268 ± 0.073,0.0338 ± 0.022,-0.201 ± 0.071
Cc1nnc(C(=O)NC(C)(C)c2nc(C(=O)NCc3ccc(F)cc3)c(O)c(=O)n2C)o1 [Raltegravir (MK-0518)],0.181 ± 0.23,0.128 ± 0.1,0.223 ± 0.26,0.0503 ± 0.47,0.172 ± 0.024,-0.0109 ± 0.087,0.079 ± 0.034,0.081 ± 0.083,0.0886 ± 0.061,0.0476 ± 0.081,0.0417 ± 0.062,0.0172 ± 0.095
C[C@]12C=CC(=O)N[C@@H]1CC[C@@H]1[C@@H]2CC[C@]2(C)[C@@H](C(=O)Nc3cc(C(F)(F)F)ccc3C(F)(F)F)CC[C@@H]12 [Dutasteride],0.0572 ± 0.11,-0.266 ± 0.33,-0.098 ± 0.33,-0.0572 ± 0.12,0.0436 ± 0.074,-0.0561 ± 0.17,-0.121 ± 0.18,-0.192 ± 0.067,0.0652 ± 0.14,0.00601 ± 0.098,-0.105 ± 0.12,-0.0918 ± 0.028
CC(C)c1ccc(NC(=O)Cn2cnc3c2c(=O)n(C)c(=O)n3C)cc1,0.0818 ± 0.25,0.191 ± 0.14,-0.00793 ± 0.14,-0.241 ± 0.17,0.11 ± 0.14,0.153 ± 0.029,-0.0696 ± 0.1,0.141 ± 0.17,0.0628 ± 0.063,0.0334 ± 0.059,-0.0066 ± 0.078,-0.0472 ± 0.062
C=C1C(=O)O[C@@H]2/C=C(\C)CC/C=C(\C)CC[C@@H]12 [Costunolide],-0.0293 ± 0.26,0.121 ± 0.1,0.05 ± 0.29,0.00793 ± 0.23,0.139 ± 0.024,0.0997 ± 0.093,-0.0706 ± 0.15,-0.0628 ± 0.16,0.131 ± 0.06,0.0672 ± 0.065,-0.0181 ± 0.11,0.0468 ± 0.079
Cc1ccc2c(=O)c3cccc(CC(=O)O)c3oc2c1C [DMXAA (Vadimezan)],-0.568 ± 0.62,-0.629 ± 0.61,-0.477 ± 0.69,-0.23 ± 0.24,-0.106 ± 0.16,0.00293 ± 0.27,-0.109 ± 0.047,-0.147 ± 0.03,-0.00747 ± 0.13,-0.0364 ± 0.071,-0.0384 ± 0.056,-0.0311 ± 0.091
O=C(/C=C/c1ccc(O)c(O)c1)OCCc1ccccc1 [Caffeic Acid Phenethyl Ester],0.262 ± 0.22,-0.0107 ± 0.28,-0.0638 ± 0.19,-0.511 ± 0.54,0.258 ± 0.25,0.081 ± 0.063,-0.0445 ± 0.18,-0.148 ± 0.19,0.0534 ± 0.011,0.167 ± 0.23,0.0897 ± 0.19,-0.026 ± 0.11
CC(C)(C)c1nc(-c2cccc(NS(=O)(=O)c3c(F)cccc3F)c2F)c(-c2ccnc(N)n2)s1,-0.134 ± 0.14,0.0108 ± 0.098,-0.279 ± 0.13,-0.8 ± 0.028,0.179 ± 0.1,0.0653 ± 0.03,-0.00753 ± 0.069,-0.455 ± 0.14,0.0953 ± 0.083,0.0491 ± 0.049,-0.00073 ± 0.12,-0.25 ± 0.15
COc1cc2/c(=N/c3ccc(Br)cc3F)nc[nH]c2cc1OCC1CCN(C)CC1 [Vandetanib (ZD6474)],-1.31 ± 0.65,-0.228 ± 0.55,-0.533 ± 0.86,-0.534 ± 0.48,-0.323 ± 0.12,0.264 ± 0.23,-0.231 ± 0.48,-0.349 ± 0.56,-0.146 ± 0.13,0.00386 ± 0.23,-0.159 ± 0.26,-0.176 ± 0.26
CC(C)CCN1c2nc(Nc3cc(F)c(O)c(F)c3)ncc2N(C)C(=O)C1C (stereo unspecified),0.186 ± 0.09,0.029 ± 0.18,-0.0116 ± 0.31,-0.7 ± 0.34,0.114 ± 0.056,0.163 ± 0.063,0.0484 ± 0.044,-0.44 ± 0.088,0.141 ± 0.041,0.126 ± 0.051,-0.0659 ± 0.057,-0.285 ± 0.072
COc1cc(OC)c(NC(=O)Nc2cc(C)on2)cc1Cl,-0.0786 ± 0.27,0.0854 ± 0.22,0.114 ± 0.13,0.138 ± 0.18,0.109 ± 0.098,0.122 ± 0.17,0.0904 ± 0.084,-0.039 ± 0.045,0.108 ± 0.088,-0.0113 ± 0.06,0.0682 ± 0.074,-0.0603 ± 0.051
OC[C@H]1O[C@@H](c2ccc(Cl)c(Cc3ccc(O[C@H]4CCOC4)cc3)c2)[C@H](O)[C@@H](O)[C@@H]1O,-0.296 ± 0.24,-0.0746 ± 0.17,-0.192 ± 0.058,-0.134 ± 0.23,-0.000657 ± 0.00093,-0.0469 ± 0.048,-0.142 ± 0.14,-0.043 ± 0.042,-0.00594 ± 0.07,-0.0338 ± 0.028,-0.00935 ± 0.06,0.0166 ± 0.035
Cc1nc(C(=O)NCC(=O)O)c(O)c2ccc(Oc3ccccc3)cc12,0.327 ± 0.25,0.284 ± 0.17,0.29 ± 0.029,0.238 ± 0.16,0.135 ± 0.14,0.363 ± 0.2,0.139 ± 0.034,0.0565 ± 0.044,0.0773 ± 0.14,0.17 ± 0.19,0.0944 ± 0.032,0.0304 ± 0.03
C=CC(=O)Nc1cccc(Nc2nc(Nc3ccc(OCCOC)cc3)ncc2F)c1,0.217 ± 0.23,0.0567 ± 0.091,-0.0576 ± 0.21,-0.778 ± 0.26,0.259 ± 0.069,0.0465 ± 0.07,-0.266 ± 0.17,-0.458 ± 0.028,0.0954 ± 0.13,0.0518 ± 0.16,-0.112 ± 0.064,-0.213 ± 0.08
